Data: paper PMC4251979
These are yes or no findings as the source states them, for the method shown. For some of these results: Binding seen in cells or lysates may run through a third protein. Some results given as binding are weak or reduced against the parent protein; the word gives no strength. For some of these results: Where a sequence is shown, tags or fusion partners need not be part of it.

Protein sequences, listed by entry. Tags and fused reporters are not part of them.
UniProt Q6P1D7: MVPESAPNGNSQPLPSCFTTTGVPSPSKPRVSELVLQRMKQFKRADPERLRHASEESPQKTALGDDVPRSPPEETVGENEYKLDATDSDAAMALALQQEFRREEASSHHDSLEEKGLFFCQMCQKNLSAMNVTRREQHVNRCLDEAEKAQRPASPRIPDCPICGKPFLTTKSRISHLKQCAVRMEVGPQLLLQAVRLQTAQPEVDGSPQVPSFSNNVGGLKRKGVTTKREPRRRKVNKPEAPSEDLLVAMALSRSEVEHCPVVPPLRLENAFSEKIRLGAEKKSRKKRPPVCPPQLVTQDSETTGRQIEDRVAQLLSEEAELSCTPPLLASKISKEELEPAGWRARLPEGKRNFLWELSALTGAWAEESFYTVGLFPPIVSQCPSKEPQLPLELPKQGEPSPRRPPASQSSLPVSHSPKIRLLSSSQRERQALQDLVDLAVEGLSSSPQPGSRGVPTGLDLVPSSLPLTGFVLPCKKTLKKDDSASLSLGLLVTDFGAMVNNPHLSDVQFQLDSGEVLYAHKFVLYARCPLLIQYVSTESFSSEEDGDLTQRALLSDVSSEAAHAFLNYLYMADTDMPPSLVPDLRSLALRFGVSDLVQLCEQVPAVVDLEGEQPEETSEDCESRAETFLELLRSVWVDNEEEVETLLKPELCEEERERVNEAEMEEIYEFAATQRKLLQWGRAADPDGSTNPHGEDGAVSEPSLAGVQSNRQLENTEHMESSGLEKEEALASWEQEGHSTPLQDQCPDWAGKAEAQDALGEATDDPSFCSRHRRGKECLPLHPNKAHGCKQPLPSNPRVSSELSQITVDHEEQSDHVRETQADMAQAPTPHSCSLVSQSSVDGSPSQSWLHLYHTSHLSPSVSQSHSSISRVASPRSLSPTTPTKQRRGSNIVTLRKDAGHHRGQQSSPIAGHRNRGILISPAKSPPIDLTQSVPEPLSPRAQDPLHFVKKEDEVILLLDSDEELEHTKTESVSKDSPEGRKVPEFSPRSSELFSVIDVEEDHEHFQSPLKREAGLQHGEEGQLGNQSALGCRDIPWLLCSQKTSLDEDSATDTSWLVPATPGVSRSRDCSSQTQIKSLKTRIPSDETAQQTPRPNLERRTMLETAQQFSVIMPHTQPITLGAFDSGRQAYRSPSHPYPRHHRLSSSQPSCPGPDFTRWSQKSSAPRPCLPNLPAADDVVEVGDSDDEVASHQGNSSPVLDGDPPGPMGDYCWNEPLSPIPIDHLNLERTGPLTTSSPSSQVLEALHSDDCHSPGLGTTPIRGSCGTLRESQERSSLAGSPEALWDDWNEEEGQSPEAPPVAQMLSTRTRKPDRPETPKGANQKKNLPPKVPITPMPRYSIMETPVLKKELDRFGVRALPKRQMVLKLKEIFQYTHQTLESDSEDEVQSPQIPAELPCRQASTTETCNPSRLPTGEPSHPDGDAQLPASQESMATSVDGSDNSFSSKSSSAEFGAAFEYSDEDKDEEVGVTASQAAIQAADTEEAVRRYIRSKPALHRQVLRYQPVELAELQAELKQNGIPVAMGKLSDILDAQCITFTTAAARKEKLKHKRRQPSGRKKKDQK
UniProt Q8IY92: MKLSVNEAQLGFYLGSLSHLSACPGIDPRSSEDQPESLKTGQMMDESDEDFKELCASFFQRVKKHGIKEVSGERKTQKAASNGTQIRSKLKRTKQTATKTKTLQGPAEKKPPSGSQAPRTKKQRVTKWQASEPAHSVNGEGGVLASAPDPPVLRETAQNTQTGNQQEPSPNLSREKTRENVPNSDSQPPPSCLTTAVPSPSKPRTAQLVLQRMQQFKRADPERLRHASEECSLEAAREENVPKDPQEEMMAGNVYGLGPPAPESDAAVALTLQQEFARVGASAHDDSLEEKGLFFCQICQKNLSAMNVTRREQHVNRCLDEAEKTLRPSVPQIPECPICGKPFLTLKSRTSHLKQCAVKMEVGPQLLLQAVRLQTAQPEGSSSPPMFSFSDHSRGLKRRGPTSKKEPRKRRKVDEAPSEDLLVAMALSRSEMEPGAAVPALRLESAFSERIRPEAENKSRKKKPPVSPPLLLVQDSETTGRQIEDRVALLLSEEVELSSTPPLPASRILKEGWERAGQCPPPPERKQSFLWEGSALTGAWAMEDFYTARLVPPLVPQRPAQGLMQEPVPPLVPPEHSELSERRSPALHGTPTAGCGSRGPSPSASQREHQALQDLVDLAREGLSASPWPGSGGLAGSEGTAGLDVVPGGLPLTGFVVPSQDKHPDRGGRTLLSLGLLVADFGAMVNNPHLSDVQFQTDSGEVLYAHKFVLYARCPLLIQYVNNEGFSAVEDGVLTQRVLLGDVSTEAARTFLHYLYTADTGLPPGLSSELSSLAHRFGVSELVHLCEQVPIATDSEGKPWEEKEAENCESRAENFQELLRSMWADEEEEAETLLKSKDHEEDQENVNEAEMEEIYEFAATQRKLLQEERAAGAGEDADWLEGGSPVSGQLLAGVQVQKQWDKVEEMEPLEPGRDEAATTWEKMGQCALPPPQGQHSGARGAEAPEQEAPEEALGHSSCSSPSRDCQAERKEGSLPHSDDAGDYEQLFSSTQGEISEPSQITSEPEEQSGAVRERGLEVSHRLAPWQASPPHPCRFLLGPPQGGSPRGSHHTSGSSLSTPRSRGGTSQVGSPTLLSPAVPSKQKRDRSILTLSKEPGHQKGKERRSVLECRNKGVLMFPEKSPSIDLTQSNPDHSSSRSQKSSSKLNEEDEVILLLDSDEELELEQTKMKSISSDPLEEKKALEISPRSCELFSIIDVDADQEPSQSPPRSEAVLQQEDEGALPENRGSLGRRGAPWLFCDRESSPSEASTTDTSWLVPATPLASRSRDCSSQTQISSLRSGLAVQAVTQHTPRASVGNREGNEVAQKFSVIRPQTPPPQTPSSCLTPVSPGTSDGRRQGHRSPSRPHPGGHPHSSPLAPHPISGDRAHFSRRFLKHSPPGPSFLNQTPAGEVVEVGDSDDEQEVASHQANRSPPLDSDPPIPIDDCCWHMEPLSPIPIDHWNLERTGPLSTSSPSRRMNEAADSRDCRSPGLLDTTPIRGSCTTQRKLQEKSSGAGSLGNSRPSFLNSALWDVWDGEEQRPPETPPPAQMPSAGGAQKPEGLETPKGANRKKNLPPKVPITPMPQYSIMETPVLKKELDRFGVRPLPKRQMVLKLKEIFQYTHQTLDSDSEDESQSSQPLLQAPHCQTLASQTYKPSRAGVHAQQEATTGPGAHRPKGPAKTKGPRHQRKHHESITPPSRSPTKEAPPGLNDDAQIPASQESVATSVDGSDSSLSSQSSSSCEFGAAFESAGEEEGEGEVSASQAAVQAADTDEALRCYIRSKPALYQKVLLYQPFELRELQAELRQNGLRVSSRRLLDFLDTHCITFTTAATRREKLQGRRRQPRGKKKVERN

T1: MUS81 fragment (1-250) fused to a GAL4-DNA binding domain (human) (UniProt Q96NY9)
T1 sequence: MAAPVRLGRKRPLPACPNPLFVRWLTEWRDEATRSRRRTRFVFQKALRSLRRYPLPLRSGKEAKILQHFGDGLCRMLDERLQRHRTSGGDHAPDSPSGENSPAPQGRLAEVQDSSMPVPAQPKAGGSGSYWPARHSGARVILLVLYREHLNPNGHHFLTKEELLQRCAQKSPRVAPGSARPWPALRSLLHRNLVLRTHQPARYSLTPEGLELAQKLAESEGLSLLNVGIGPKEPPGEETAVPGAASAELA

T2: MUS81 fragment (1-106) fused to a GAL4-DNA binding domain (human) (UniProt Q96NY9)
T2 sequence: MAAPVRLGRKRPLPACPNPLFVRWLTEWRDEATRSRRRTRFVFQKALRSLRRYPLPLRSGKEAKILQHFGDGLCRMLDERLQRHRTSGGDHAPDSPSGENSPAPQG

T3: FLAG-MUS81 W24A L25A (human) (UniProt Q96NY9)
T3 sequence: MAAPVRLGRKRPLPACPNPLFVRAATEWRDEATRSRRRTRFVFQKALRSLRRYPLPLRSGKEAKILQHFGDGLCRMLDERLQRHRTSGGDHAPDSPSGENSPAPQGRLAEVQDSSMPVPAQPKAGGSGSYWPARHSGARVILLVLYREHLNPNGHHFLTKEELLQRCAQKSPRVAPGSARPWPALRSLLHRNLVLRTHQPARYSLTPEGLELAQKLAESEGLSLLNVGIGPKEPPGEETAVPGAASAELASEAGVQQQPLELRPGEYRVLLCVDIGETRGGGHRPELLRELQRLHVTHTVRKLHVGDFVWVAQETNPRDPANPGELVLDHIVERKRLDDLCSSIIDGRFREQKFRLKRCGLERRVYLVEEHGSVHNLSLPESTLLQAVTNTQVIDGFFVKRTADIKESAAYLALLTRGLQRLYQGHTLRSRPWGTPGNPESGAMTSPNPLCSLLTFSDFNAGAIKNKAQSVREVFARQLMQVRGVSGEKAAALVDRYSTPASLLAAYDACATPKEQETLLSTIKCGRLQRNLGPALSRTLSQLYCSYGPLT

T4: FLAG-MUS81 L66A Q67A (human) (UniProt Q96NY9)
T4 sequence: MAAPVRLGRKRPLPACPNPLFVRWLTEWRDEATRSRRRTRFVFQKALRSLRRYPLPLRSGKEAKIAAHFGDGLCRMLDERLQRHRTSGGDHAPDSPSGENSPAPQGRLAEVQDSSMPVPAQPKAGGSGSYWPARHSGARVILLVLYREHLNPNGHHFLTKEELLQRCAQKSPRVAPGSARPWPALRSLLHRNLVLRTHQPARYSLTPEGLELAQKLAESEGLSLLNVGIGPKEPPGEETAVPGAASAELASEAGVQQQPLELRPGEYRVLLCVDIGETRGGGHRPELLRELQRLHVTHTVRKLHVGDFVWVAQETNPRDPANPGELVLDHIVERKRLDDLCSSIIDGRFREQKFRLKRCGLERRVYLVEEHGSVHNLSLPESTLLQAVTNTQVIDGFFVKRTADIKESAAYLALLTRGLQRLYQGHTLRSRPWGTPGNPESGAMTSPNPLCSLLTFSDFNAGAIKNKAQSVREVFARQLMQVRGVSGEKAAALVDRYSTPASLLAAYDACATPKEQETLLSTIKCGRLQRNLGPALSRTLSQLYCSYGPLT


Columns and labels:
[1] = molecular target: T1, MUS81 fragment (1-250) fused to a GAL4-DNA binding domain (human); test: two-hybrid; yeast two-hybrid; MUS81 fused to GAL4 DNA binding domain, SLX4 fused to GAL4 activation domain; HIS3 and lacZ reporters
[2] = molecular target: T2, MUS81 fragment (1-106) fused to a GAL4-DNA binding domain (human); test: as above
[3] = molecular target: T3, FLAG-MUS81 W24A L25A (human); test: co-IP; HEK293 cells transiently transfected with FLAG-MUS81 (wild type or mutants); extracts immunoprecipitated with anti-FLAG (FLAG-M2 agarose beads), western blotting
[4] = molecular target: T4, FLAG-MUS81 L66A Q67A (human); test: as above
[5] = molecular target: SLX4 (MEFs) (mouse (endogenous in MEFs)) (UniProt Q6P1D7); test: co-IP; extracts of Mus81-/- MEFs complemented by retroviruses with MUS81 (wild type or mutants); immunoprecipitation with anti-SLX4 antibodies, western blotting
[6] = molecular target: endogenous SLX4 (human cells) (human (endogenous in HEK293 and HCT116)) (UniProt Q8IY92); test: co-IP; extracts of MUS81-/- HCT116 cells complemented by retroviruses with MUS81 (wild type or mutants); immunoprecipitation with anti-MUS81 and anti-SLX4 antibodies, western blotting

Molecule | binding [5] | binding [6] | further results
full-length SLX4 fused to a GAL4-activation domain (from UniProt Q8IY92 1-1834) | – | – | binding [1]: binds; binding [2]: binds
EME1 (HEK293 cells) (protein, UniProt Q96AY2 1-570) MALKKSSPSLDSGDSDSEELPTFAFLKKEPSSTKRRQPEREEKIVVVDISDCEASCPPAPELFSPPVPEIAETVTQTQPVRLLSSESEDEEEFIPLAQRLTCKFLTHKQLSPEDSSSPVKSVLDHQNNEGASCDWKKPFPKIPEVPLHDTPERSAADNKDLILDPCCQLPAYLSTCPGQSSSLAVTKTNSDILPPQKKTKPSQKVQGRGSHGCRQQRQARQKESTLRRQERKNAALVTRMKAQRPEECLKHIIVVLDPVLLQMEGGGQLLGALQTMECRCVIEAQAVPCSVTWRRRAGPSEDREDWVEEPTVLVLLRAEAFVSMIDNGKQGSLDSTMKGKETLQGFVTDITAKTAGKALSLVIVDQEKCFSAQNPPRRGKQGANKQTKKQQQRQPEASIGSMVSRVDAEEALVDLQLHTEAQAQIVQSWKELADFTCAFTKAVAEAPFKKLRDETTFSFCLESDWAGGVKVDLAGRGLALVWRRQIQQLNRVSLEMASAVVNAYPSPQLLVQAYQQCFSDKERQNLLADIQVRRGEGVTSTSRRIGPELSRRIYLQMTTLQPHLSLDSAD | – | – | binding [3]: binds; binding [4]: binds
MUS81 24/25AA expressed in MUS81-/- HCT116 cells (protein, UniProt Q96NY9 1-551) MAAPVRLGRKRPLPACPNPLFVRAATEWRDEATRSRRRTRFVFQKALRSLRRYPLPLRSGKEAKILQHFGDGLCRMLDERLQRHRTSGGDHAPDSPSGENSPAPQGRLAEVQDSSMPVPAQPKAGGSGSYWPARHSGARVILLVLYREHLNPNGHHFLTKEELLQRCAQKSPRVAPGSARPWPALRSLLHRNLVLRTHQPARYSLTPEGLELAQKLAESEGLSLLNVGIGPKEPPGEETAVPGAASAELASEAGVQQQPLELRPGEYRVLLCVDIGETRGGGHRPELLRELQRLHVTHTVRKLHVGDFVWVAQETNPRDPANPGELVLDHIVERKRLDDLCSSIIDGRFREQKFRLKRCGLERRVYLVEEHGSVHNLSLPESTLLQAVTNTQVIDGFFVKRTADIKESAAYLALLTRGLQRLYQGHTLRSRPWGTPGNPESGAMTSPNPLCSLLTFSDFNAGAIKNKAQSVREVFARQLMQVRGVSGEKAAALVDRYSTPASLLAAYDACATPKEQETLLSTIKCGRLQRNLGPALSRTLSQLYCSYGPLT | – | no binding | –
MUS81 66/67AA expressed in MUS81-/- HCT116 cells (protein, UniProt Q96NY9 1-551) MAAPVRLGRKRPLPACPNPLFVRWLTEWRDEATRSRRRTRFVFQKALRSLRRYPLPLRSGKEAKIAAHFGDGLCRMLDERLQRHRTSGGDHAPDSPSGENSPAPQGRLAEVQDSSMPVPAQPKAGGSGSYWPARHSGARVILLVLYREHLNPNGHHFLTKEELLQRCAQKSPRVAPGSARPWPALRSLLHRNLVLRTHQPARYSLTPEGLELAQKLAESEGLSLLNVGIGPKEPPGEETAVPGAASAELASEAGVQQQPLELRPGEYRVLLCVDIGETRGGGHRPELLRELQRLHVTHTVRKLHVGDFVWVAQETNPRDPANPGELVLDHIVERKRLDDLCSSIIDGRFREQKFRLKRCGLERRVYLVEEHGSVHNLSLPESTLLQAVTNTQVIDGFFVKRTADIKESAAYLALLTRGLQRLYQGHTLRSRPWGTPGNPESGAMTSPNPLCSLLTFSDFNAGAIKNKAQSVREVFARQLMQVRGVSGEKAAALVDRYSTPASLLAAYDACATPKEQETLLSTIKCGRLQRNLGPALSRTLSQLYCSYGPLT | – | no binding | –

The next lines start with results.

binding [5] | binding [6] | Molecule | further results
binds | – | wild-type mouse MUS81 (protein, UniProt Q91ZJ0 1-551) MAEPVRLGRKRPLPVCPNPLFVRWLTEWRDEAASRGRHTRFVFQKALRSLQRYPLPLRSGKEAKILQHFGDRLCRMLDEKLKQHLASGGDHAPSSPSGKKGASKGPPEQVQDSSMPVPTQPQAGSTSVGYWPAQNSGAREILLQLYREHLNSDGHSFLTKEELLQKCAQKTPRVVPGSSKPWPALRSLLHRNLILGTHRPARYALTPEGLELAQKLAEAEGLSTRHAGFRPEEHHGEDSAVPEALSEPGTTEGAVQQRPLELRPSEYRVLLCVDIGETRGAGHRPEMLRELQRLRVPHTVRKLHVGDFVWVAQETRPRDPERPGELVLDHIVERKRLDDLCSSIIDGRFREQKFRLKRCGLGHRVYLVEEHGSVHNLSLPESTLLQAVTNTQVIDGFFVKRTMDIKESAGYLALLTKGLERLYQGHTLRSRPWGAPGAAESEAKPSTNPLCSLLTFSDFNAEAVKNKAQSVREVFARQLMQVRGLSGEKAAAVVDRYSTPASLLAAYDACATAKEQEMLLSTIKCGRLQRNLGPALSRTLYQLYCSHSPLS | –
no binding | – | full-length mouse MUS81 L66A Q67A (protein, UniProt Q91ZJ0 1-551) MAEPVRLGRKRPLPVCPNPLFVRWLTEWRDEAASRGRHTRFVFQKALRSLQRYPLPLRSGKEAKIAAHFGDRLCRMLDEKLKQHLASGGDHAPSSPSGKKGASKGPPEQVQDSSMPVPTQPQAGSTSVGYWPAQNSGAREILLQLYREHLNSDGHSFLTKEELLQKCAQKTPRVVPGSSKPWPALRSLLHRNLILGTHRPARYALTPEGLELAQKLAEAEGLSTRHAGFRPEEHHGEDSAVPEALSEPGTTEGAVQQRPLELRPSEYRVLLCVDIGETRGAGHRPEMLRELQRLRVPHTVRKLHVGDFVWVAQETRPRDPERPGELVLDHIVERKRLDDLCSSIIDGRFREQKFRLKRCGLGHRVYLVEEHGSVHNLSLPESTLLQAVTNTQVIDGFFVKRTMDIKESAGYLALLTKGLERLYQGHTLRSRPWGAPGAAESEAKPSTNPLCSLLTFSDFNAEAVKNKAQSVREVFARQLMQVRGLSGEKAAAVVDRYSTPASLLAAYDACATAKEQEMLLSTIKCGRLQRNLGPALSRTLYQLYCSHSPLS | –
no binding | – | full-length mouse MUS81 W24A L25A (protein, UniProt Q91ZJ0 1-551) MAEPVRLGRKRPLPVCPNPLFVRAATEWRDEAASRGRHTRFVFQKALRSLQRYPLPLRSGKEAKILQHFGDRLCRMLDEKLKQHLASGGDHAPSSPSGKKGASKGPPEQVQDSSMPVPTQPQAGSTSVGYWPAQNSGAREILLQLYREHLNSDGHSFLTKEELLQKCAQKTPRVVPGSSKPWPALRSLLHRNLILGTHRPARYALTPEGLELAQKLAEAEGLSTRHAGFRPEEHHGEDSAVPEALSEPGTTEGAVQQRPLELRPSEYRVLLCVDIGETRGAGHRPEMLRELQRLRVPHTVRKLHVGDFVWVAQETRPRDPERPGELVLDHIVERKRLDDLCSSIIDGRFREQKFRLKRCGLGHRVYLVEEHGSVHNLSLPESTLLQAVTNTQVIDGFFVKRTMDIKESAGYLALLTKGLERLYQGHTLRSRPWGAPGAAESEAKPSTNPLCSLLTFSDFNAEAVKNKAQSVREVFARQLMQVRGLSGEKAAAVVDRYSTPASLLAAYDACATAKEQEMLLSTIKCGRLQRNLGPALSRTLYQLYCSHSPLS | –
– | binds | wild-type MUS81 expressed in MUS81-/- HCT116 cells (protein, UniProt Q96NY9 1-551) MAAPVRLGRKRPLPACPNPLFVRWLTEWRDEATRSRRRTRFVFQKALRSLRRYPLPLRSGKEAKILQHFGDGLCRMLDERLQRHRTSGGDHAPDSPSGENSPAPQGRLAEVQDSSMPVPAQPKAGGSGSYWPARHSGARVILLVLYREHLNPNGHHFLTKEELLQRCAQKSPRVAPGSARPWPALRSLLHRNLVLRTHQPARYSLTPEGLELAQKLAESEGLSLLNVGIGPKEPPGEETAVPGAASAELASEAGVQQQPLELRPGEYRVLLCVDIGETRGGGHRPELLRELQRLHVTHTVRKLHVGDFVWVAQETNPRDPANPGELVLDHIVERKRLDDLCSSIIDGRFREQKFRLKRCGLERRVYLVEEHGSVHNLSLPESTLLQAVTNTQVIDGFFVKRTADIKESAAYLALLTRGLQRLYQGHTLRSRPWGTPGNPESGAMTSPNPLCSLLTFSDFNAGAIKNKAQSVREVFARQLMQVRGVSGEKAAALVDRYSTPASLLAAYDACATPKEQETLLSTIKCGRLQRNLGPALSRTLSQLYCSYGPLT | –
